{"source": "the RNAGym collection of RNA variant scans (doi:10.7554/elife.90254)", "parents": {"B1": {"name": "LINE1-mini (parent)", "chain": "GGCAGAGCUCAACACAGCGUGGCAAAGUGGCUGUGGCUAGACUGCC"}}, "note": "Read counts are not given, so values of variants with three or more changes are uncertain."}
{"variants_of": "B1", "experiment": "self-cleavage, relative activity (ratio to wild type); higher = more cleavage; in vitro, sequencing; the parent is a self-cleaving ribozyme"}
{"variant": "G5U C18U G27U G40A A41C", "self-cleavage": 0.01}
{"variant": "C8G G17U A26G G30A G40C A41U", "self-cleavage": 0.07}
{"variant": "C3U A4C C10U A16G U32C A41G", "self-cleavage": 0.1}
{"variant": "G1A C18A A39U G40U A41C", "self-cleavage": 0.04}
{"variant": "G2C U9C G22A C23A C37U", "self-cleavage": 0.01}
{"variant": "G40U C42G G44U C45A C46G", "self-cleavage": 0.21}
{"variant": "G22C C23A G30C G36A", "self-cleavage": 0.14}
{"variant": "U9C G17A U28C", "self-cleavage": 0.02}
{"variant": "G2U A4C G19A C45A", "self-cleavage": 0.07}
{"variant": "G7U U20G U32G G36U C42U", "self-cleavage": 0.01}
{"variant": "G1C G40U C45G", "self-cleavage": 0}
{"variant": "G2A A12G G27A", "self-cleavage": 0.04}
{"variant": "G7C A11G C31G", "self-cleavage": 0.02}
{"variant": "G2A G21U U38C", "self-cleavage": 0.56}
{"variant": "G1U G2U G7U C8G A12C C31A G36A", "self-cleavage": 0.01}
{"variant": "C8G C18G C23U C46U", "self-cleavage": 0.15}
{"variant": "U20A G30A C42U C46U", "self-cleavage": 0.07}
{"variant": "G7U U9G C31A C37A", "self-cleavage": 0.01}
{"variant": "A24C U28A C37G", "self-cleavage": 0.03}
{"variant": "C15A U38A A39G C42G", "self-cleavage": 0.02}
{"variant": "G1U G5C G7U", "self-cleavage": 0.11}
{"variant": "G1U G27C G44U", "self-cleavage": 0.06}
{"variant": "U28A A39U C42A", "self-cleavage": 0.11}
{"variant": "C10G C18A G19A C23U A24G", "self-cleavage": 0.31}
{"variant": "C8A G44U C45A", "self-cleavage": 0.17}
{"variant": "G7A C13U A14U C31U", "self-cleavage": 0.27}
{"variant": "U20G G27A A41C", "self-cleavage": 0.04}
{"variant": "G1C G2C U9G", "self-cleavage": 0.04}
{"variant": "C13A G17C A25C", "self-cleavage": 0.02}
{"variant": "G17A G29U C37A", "self-cleavage": 0.03}
{"variant": "C15A A16U A25G G35A C37G", "self-cleavage": 0.27}
{"variant": "C23A A26G G33C", "self-cleavage": 0.07}
{"variant": "A4U A6U G35U", "self-cleavage": 0.15}
{"variant": "C10A C15A G19U G35A", "self-cleavage": 0.03}
{"variant": "G1C G2C U9C G29C", "self-cleavage": 0.02}
{"variant": "C23A A26U C42A", "self-cleavage": 0.31}
{"variant": "G1C G21C A24U A25U A26C", "self-cleavage": 0.12}
{"variant": "C8G G19U G29U G40C C46A", "self-cleavage": 0.09}
{"variant": "C15G C18G U38G A39G", "self-cleavage": 0.02}
{"variant": "C8U G19A C31U", "self-cleavage": 0.13}
{"variant": "C3U A6G G21U U32A G40A C46G", "self-cleavage": 0.06}
{"variant": "G1C G2A U9G G19A", "self-cleavage": 0.08}
{"variant": "A16U A39G U43C", "self-cleavage": 0.02}
{"variant": "C10G C15G C18U G36U", "self-cleavage": 0.03}
{"variant": "C13A C31U C45U", "self-cleavage": 0.05}
{"variant": "A16C U34G G35U G44U", "self-cleavage": 0.04}
{"variant": "A11G A25U U38A C42A U43G", "self-cleavage": 0}
{"variant": "C10A U32C G44A", "self-cleavage": 0.04}
{"variant": "C3U C8A C13U C18A", "self-cleavage": 0.29}
{"variant": "G1U C8A A26U G40U", "self-cleavage": 0.06}
{"variant": "G7C U28C G44C", "self-cleavage": 0.11}
{"variant": "A14G A26U G29U", "self-cleavage": 0.13}
{"variant": "U9G C23U G36U", "self-cleavage": 0.1}
{"variant": "A6U C13A G29U G30A G44U", "self-cleavage": 0.03}
{"variant": "C13U C31G U32A G33U", "self-cleavage": 0.03}
{"variant": "G7C G27U U32A G35A", "self-cleavage": 0.03}
{"variant": "G2U G40C G44C", "self-cleavage": 0.03}
{"variant": "C15U U20A G33A C45A", "self-cleavage": 0.32}
{"variant": "C3A G5A A24C G33C A41G", "self-cleavage": 0.19}
{"variant": "C3U A39C C46U", "self-cleavage": 0.07}
{"variant": "G7U C15A G30C A39G U43A", "self-cleavage": 0.05}
{"variant": "U20C G22A G44U C45A", "self-cleavage": 0.03}
{"variant": "G7C C18U A25C G29A C46A", "self-cleavage": 0.03}
{"variant": "C3U A6C C8U C23G A24C U28A C31U C37U A41C", "self-cleavage": 0.01}
{"variant": "G7A C8U G17A G22U", "self-cleavage": 0.29}
{"variant": "G21A C31G U32G G35C", "self-cleavage": 0.02}
{"variant": "G7U U28C G33U", "self-cleavage": 0.32}
{"variant": "C3G G27A U38A C45A", "self-cleavage": 0.02}
{"variant": "G1U C8U A16C A24G A39U", "self-cleavage": 0.02}
{"variant": "G1A A14U C31A U34A G36U", "self-cleavage": 0.07}
{"variant": "C3G A4C C8U U20C G27U G33U C46A", "self-cleavage": 0.14}
{"variant": "C13U U28A G36U G44C", "self-cleavage": 0.05}
{"variant": "C15U U20A A26U C31U", "self-cleavage": 0.04}
{"variant": "C3A C18U G19U G33U", "self-cleavage": 0.1}
{"variant": "G2A G7U C18G C23U A26G C46G", "self-cleavage": 0.11}
{"variant": "C10G A12C G35C", "self-cleavage": 0.01}
{"variant": "G5C G27U C42U", "self-cleavage": 0.02}
{"variant": "A6C C13A G22U C45U", "self-cleavage": 0.06}
{"variant": "C8U G21U C31U", "self-cleavage": 0.19}
{"variant": "G2U U9C C23A U32G G36C", "self-cleavage": 0.02}
{"variant": "C3U G17C G27C", "self-cleavage": 0}
{"variant": "C23A A24U G30A G40A", "self-cleavage": 0.14}
{"variant": "C10U G27C G44A", "self-cleavage": 0.1}
{"variant": "G21C G29A G35U", "self-cleavage": 1.02}
{"variant": "C10A C13G C18U A24U U34C G35U", "self-cleavage": 0.01}
{"variant": "A6U C8A A14G", "self-cleavage": 0.21}
{"variant": "C15A C18G G40U", "self-cleavage": 0.04}
{"variant": "G2U G22U C31U U34G", "self-cleavage": 0.01}
{"variant": "G1U A24G G33U", "self-cleavage": 0}
{"variant": "A16G C37U A41G", "self-cleavage": 0.02}
{"variant": "G17A G22U C45U", "self-cleavage": 0.18}
{"variant": "C10U U20G U32G", "self-cleavage": 0.03}
{"variant": "U38A C42A C46G", "self-cleavage": 0.06}
{"variant": "G7U A24G C42A C46G", "self-cleavage": 0.47}
{"variant": "G5U U9C G22C", "self-cleavage": 0.01}
{"variant": "A11U A25G A39C", "self-cleavage": 0}
{"variant": "A12U C23U G36C", "self-cleavage": 0.01}
{"variant": "G7A A16U A25G C31G", "self-cleavage": 0.02}
{"variant": "A11C A12U G30U C42G", "self-cleavage": 0.03}
{"variant": "C3U A11G A24G C46U", "self-cleavage": 0.03}
{"variant": "G22U C31G G36U", "self-cleavage": 0.06}
{"variant": "G5A C8A C23U U34G", "self-cleavage": 0.4}
{"variant": "C10G G27U G44C", "self-cleavage": 0.14}
{"variant": "G21C C37A A41U", "self-cleavage": 0.08}
{"variant": "G2C C3A C15G G22U C37A C46A", "self-cleavage": 0.01}
{"variant": "C10G A25U G40A C42U", "self-cleavage": 0}
{"variant": "C10U C15U U38A G40A", "self-cleavage": 0.01}
{"variant": "A4C G7C A41C U43A", "self-cleavage": 0.01}
{"variant": "A14G G17A G19U", "self-cleavage": 0.02}
{"variant": "G5U G29U C45G", "self-cleavage": 0.03}
{"variant": "C8A C15U G36C", "self-cleavage": 0.19}
{"variant": "G1U A14C A25U", "self-cleavage": 0.03}
{"variant": "U9G C10G A26G", "self-cleavage": 0.03}
{"variant": "U9A G35U C37U", "self-cleavage": 0.22}
{"variant": "C13G A14U G36C A41U", "self-cleavage": 0.04}
{"variant": "G19U G29U C46A", "self-cleavage": 0.36}
{"variant": "G1U A16U C31G C37U C42U", "self-cleavage": 0.02}
{"variant": "C10A C15A U20A U32A", "self-cleavage": 0.01}
{"variant": "G2A A6U A11C G35U", "self-cleavage": 0.02}
{"variant": "U20C U28G A41G", "self-cleavage": 0.87}
{"variant": "G1U G2A U9C G17C G21C U32G", "self-cleavage": 0.01}
{"variant": "U28C G29U C37G", "self-cleavage": 0.04}
{"variant": "C15A C23A A24C", "self-cleavage": 0.04}
{"variant": "A12U C18U C42A", "self-cleavage": 0.03}
{"variant": "A6G C10U A39G C46U", "self-cleavage": 0}
{"variant": "A6G C18G A25U G36A", "self-cleavage": 0.02}
{"variant": "G2A C3U G5C C13A C23U G35U C45U", "self-cleavage": 0.29}
{"variant": "C3A A6G G33U C45A", "self-cleavage": 0.04}
{"variant": "A12G G22U G33A", "self-cleavage": 0.11}
{"variant": "G1A A26U U32G", "self-cleavage": 0.11}
{"variant": "A6G G7U G27U G30U G40U", "self-cleavage": 0.02}
{"variant": "C13A C37U C42A", "self-cleavage": 0.28}
{"variant": "U20C C23U G30A C42A U43G", "self-cleavage": 0}
{"variant": "C10A G22U A26C G30U U43A", "self-cleavage": 0}
{"variant": "C8U C15A U32A C37G C45G", "self-cleavage": 0.08}
{"variant": "G5A C15A A25G C42G G44A", "self-cleavage": 0.03}
{"variant": "G2A U9A A16C G21C A41G", "self-cleavage": 0.76}
{"variant": "A4G A24G A25G A26C G33U C46A", "self-cleavage": 0}
{"variant": "G7A C23U G29A U32G", "self-cleavage": 0.74}
{"variant": "A14G G29A G30U", "self-cleavage": 0.18}
{"variant": "G17C U34C C37U G44U C45A", "self-cleavage": 0.06}
{"variant": "A11G G21U G35U", "self-cleavage": 0.01}
{"variant": "C10U G17C G27C C31U U34A C46U", "self-cleavage": 0.03}
{"variant": "C3U G7U G29U U32C", "self-cleavage": 0.12}
{"variant": "C3A C15A G29A C37A", "self-cleavage": 0.21}
{"variant": "A12U A26U U28C U32C", "self-cleavage": 0.05}
{"variant": "G5C C15U G29U", "self-cleavage": 0.03}
{"variant": "U20A G22U C23U G35U", "self-cleavage": 0.1}
{"variant": "C15G G19U A39G", "self-cleavage": 0.01}
{"variant": "G29C U32C U38A", "self-cleavage": 0.78}
{"variant": "G2U C10A A11C A14U A41U", "self-cleavage": 0.01}
{"variant": "C10A A16G G33C", "self-cleavage": 0.01}
{"variant": "G7U A11G G29C C37U", "self-cleavage": 0.01}
{"variant": "G5U U20C C23G G30A", "self-cleavage": 0.15}
{"variant": "C3U A4U C18G G21U", "self-cleavage": 0.04}
{"variant": "G2C A4U G7A G29A G40C", "self-cleavage": 0.11}
{"variant": "C37G A41U C46G", "self-cleavage": 0}
{"variant": "G5U C10A G29A G30C", "self-cleavage": 0.02}
{"variant": "G5A G36U A39U C46G", "self-cleavage": 0.04}
{"variant": "C15U C18U A24C C46U", "self-cleavage": 0.01}
{"variant": "A4U C15G C23U A26U", "self-cleavage": 0.03}
{"variant": "G1A G17C C42U", "self-cleavage": 0.06}
{"variant": "C3U C8A G27A C31U C37U G40C", "self-cleavage": 0.46}
{"variant": "G2A C8U A16G G35C", "self-cleavage": 0.26}
{"variant": "A6G A11U A39G C46A", "self-cleavage": 0.01}
{"variant": "A24C C37G G44A", "self-cleavage": 0.04}
{"variant": "C3G C10U C13G", "self-cleavage": 0.06}
